According to PubChem BioAssay AID1240 (Sanford-Burnham Center for Chemical Genomics, 2008):
Hit rate of the full screen: of about 50,000 compounds, about 800 (1.6%) showed an effect of 50% or more. The list shows a part of the results.

Biological target: Bcl-2-like protein 10 (Homo sapiens) (UniProt Q9HD36)
Test: Phenotype converters, Bcl-B/TR3 peptide binding displacement, primary biochemical FP (AID 1240);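 also: 0% = Bcl-B with tracer peptide and DMSO and 100% = tracer peptide lacking Bcl-B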
Details: GST-Bcl-B / FITC-TR3 peptide fluorescence polarization; stronger effect = higher value; compound at 3.75 mg/L

Chain of UniProt Q9HD36 (Q9HD36 whole entry, looked up): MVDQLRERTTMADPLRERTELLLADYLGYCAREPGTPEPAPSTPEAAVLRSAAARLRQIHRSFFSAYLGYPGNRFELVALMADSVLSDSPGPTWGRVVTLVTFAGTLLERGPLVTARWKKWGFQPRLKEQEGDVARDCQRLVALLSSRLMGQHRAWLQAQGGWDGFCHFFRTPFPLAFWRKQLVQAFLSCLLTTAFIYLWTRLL

Row | Structure (SMILES) | displacement [%]
1 | Cc1cc(C(=O)Nc2cccc(/C=C/C(=O)O)c2)c(C)o1 | -2.5
2 | COC(=O)CN(C#N)c1nc(SC)nc(N(C)C)n1 | -10.3
3 | COc1ccc(/C=C2\SC(=S)N(CCCC(=O)Nc3ncc(Cc4cccc([N+](=O)[O-])c4)s3)C2=O)cc1OC | 59
4 | CSc1ccc(C=NN2CCN(Cc3ccccc3Cl)CC2)cc1 | -8
5 | CC(C)(C)c1ccc(C(=O)Nc2ccc(OC(F)(F)F)cc2)cc1 | -5.9
6 | N#CSCCCCCCOc1cccc(Cl)c1 | -12
7 | CCCOC(=O)c1ccc(NC(=O)CCC(=O)OC)cc1 | 5.5
8 | Cc1cc(=O)oc2cc(OCc3ccc(Cl)cc3Cl)ccc12 | 5.7
9 | O=C1OC(COc2ccccc2)CN1c1ccc(Cl)c(Cl)c1 (stereo unspecified) | 0.5
10 | O=C1NC(=O)N(c2ccc(Cl)cc2)C(=O)/C1=C/c1ccc(O)c(Cl)c1 | 2.8
11 | COc1cc(-c2nc3sc4c(c3c(=O)[nH]2)CCCC4)ccc1C | -20.6
12 | O=[N+]([O-])c1cc(NS(=O)(=O)Cc2ccccc2)ccc1F | 11
13 | COc1ccc(-c2[nH]ncc2C=O)cc1 | -9.7
14 | O=C(N/N=C/c1ccccc1OCc1ccccc1)c1ccccc1O | 6
15 | O=C1NC(=S)N(c2ccc(Br)cc2)C(=O)/C1=C/c1ccc(O)c(Cl)c1 | 10.7
16 | CC(=O)Nc1ccc(N2C(=O)CSC23C(=O)Nc2ccccc23)cc1 (stereo unspecified) | 8.3
17 | CC(=O)Nc1ccc(-c2nc(-c3ccccc3)c3cc(NC(C)=O)ccc3n2)cc1 | 6.7
18 | Cc1ccc(S(=O)(=O)Nc2ccc(S(=O)(=O)NC(=O)C3CCCCC3)cc2)cc1 | 12.7
19 | COc1ccc(Cl)cc1C(=O)Nc1nc2ccc(S(C)(=O)=O)cc2s1 | 3.1
20 | COc1ccc(C(=O)NC2CC2)cc1OC | 8.4
21 | CC(C)c1ccc(OC(=O)CCN2C(=O)c3ccccc3C2=O)cc1 | 4.4
22 | COc1cc(-c2ccccc2)nc(N)n1 | -5.4
23 | COc1ccc(C(=O)N/C(=C\c2ccc(Cl)cc2)C(=O)NCCN2CCOCC2)cc1 | 8
24 | COc1ccc(CNS(=O)(=O)c2cccc([N+](=O)[O-])c2)cc1 | -1.6

Row | Structure (SMILES) | displacement [%]
25 | COc1ccc(C/C(N)=N/OC(=O)c2ccccc2Cl)cc1 | -0.1
26 | CCOC(=O)C(=CC1=C/C(=C/N(C)C)C(=O)O1)C(=O)OCC | -13.2
27 | CCOC(=O)c1ccc(NC2=NC3(CCCCC3)N=C(N)N2)cc1 | -7.7
28 | CCOc1ccc(N2Cc3ccccc3C2)cc1 | 1.9
29 | O=C1CCCC2=C1C(c1ccc(F)cc1)Nc1ccc(C(=O)c3ccccc3)cc1N2 (stereo unspecified) | -7.2
30 | O=S(=O)(c1cccs1)n1cnc2ccccc21 | -1.7
31 | O=C(NCCO)c1cccc([N+](=O)[O-])c1 | 0.3
32 | CC1=NN(C(=O)c2cccc(Cl)c2)C(O)(c2cccnc2)C1 (stereo unspecified) | -11.5
33 | COc1ccc(N2C(=O)CC(N3CCN(c4ccccc4F)CC3)C2=O)cc1 (stereo unspecified) | -0.5
34 | CCN(CC)c1ccc(NS(=O)(=O)c2ccc([N+](=O)[O-])cc2)cc1 | -2.3
35 | Cc1ccc(/C=N/c2nc3ccc(Br)cc3s2)c(O)c1 | -2.9
36 | CSc1ccc(C2NC(=O)c3ccccc3N2)cc1 (stereo unspecified) | 12.2
37 | O=C(Nc1ccc2nn(-c3ccc(F)cc3)nc2c1)c1ccncc1 | 3
38 | O=C1C(Nc2ccc(Cl)cc2)=C(N2CCOCC2)C(=O)c2ccccc21 | 7.3
39 | N/C(=N\OC(=O)c1ccc(Br)cc1)c1ccc(Cl)cc1 | 2.2
40 | COc1cc(C2C3=C(CC(C)(C)CC3=O)OC3=C2C(=O)CC(C)(C)C3)cc2sc(=O)oc12 | -8
41 | COc1ccc(-c2cc(C(=O)NC34CC5CC(CC(C5)C3)C4)c3ccccc3n2)cc1OC | -5.1
42 | O=C(N/N=C/c1ccc([N+](=O)[O-])c(O)c1)c1cccc(F)c1 | -7.8
43 | CCOc1cc(C=C2C(=O)NC(=O)NC2=O)ccc1OCc1ccccc1 | 33.7
44 | CCOC(=O)c1sc(NC(=O)CCCOc2ccc(Cl)cc2Cl)nc1C | 13.7
45 | Cc1cccc(C(=O)Nc2ccccc2)c1 | -4.7
46 | CC(=O)CC(=O)NC12CC3CC(CC(C3)C1)C2 | -13.2
47 | CC1CCN(C(=O)c2ccccc2)CC1 | 6.7
48 | CC(C)c1ccc(/C=N\NC(=O)c2cc(C(C)(C)C)[nH]n2)cc1 | -10.7

Row | Structure (SMILES) | displacement [%]
49 | COc1ccc(NC2CC(O)C(CO)O2)c([N+](=O)[O-])c1 (stereo unspecified) | -3.1
50 | C/C(=N\NC(=O)COc1ccccc1C)c1ccc(Br)cc1 | 3.9
51 | NS(=O)(=O)c1ccc(CCNC(=S)NC(=O)c2cccs2)cc1 | -6.3
52 | CCOC(=O)c1c(C)oc2c1C(=O)c1ccccc1C2=O | -9.7
53 | COc1cc(NC(=O)c2cccc(C)c2)cc(OC)c1 | -13
54 | Cc1ccc(C(C)C)c(COCC(O)CN2CC(C)CC(C)C2)c1 (stereo unspecified) | -4
55 | O=C(Nc1ccc2nn(-c3ccc(F)cc3)nc2c1)c1ccc2c(c1)OCCO2 | -0.4
56 | COc1ccc(C(CC(=O)O)CC(=O)O)cc1OC | -6.2
57 | COc1ccccc1NC(=O)CN(c1ccc(C)cc1)S(=O)(=O)c1ccc(SC)cc1 | 10.6
58 | CC1CCCC(C)N1C(=O)COc1ccc2ccccc2c1 (stereo unspecified) | 9.2
59 | COc1ccc(NC(=O)c2c(NC(=O)c3ccc([N+](=O)[O-])cc3)sc3c2CCCC3)cc1 | -6.3
60 | Cc1ccc(OCC(=O)NC23CC4CC(CC(C4)C2)C3)c(Br)c1 | -3.1
61 | Cc1ccc(-c2nc3ccccc3o2)cc1NC(=O)/C=C/c1ccc(Cl)cc1 | 29.5
62 | O=C(Oc1ccc2c(-c3ccccc3)cc(=O)oc2c1)c1ccccc1Cl | 12.3
63 | CCOc1ccc(S(=O)(=O)N2CCN(c3ccccc3)CC2)c2ccccc12 | -4.7
64 | Cc1[nH]c(=O)c(C(=O)/C=C/c2cccs2)c2c1CCCC2 | 119
65 | CCN(CC)CC(O)COc1ccccc1 (stereo unspecified) | 15.7
66 | CC(C)c1nnc(NC(=O)COC(=O)/C=C/c2ccc([N+](=O)[O-])cc2)s1 | -9.5
67 | Cc1ccc(-c2ccc(C(=O)Nc3ccc(N4CCOCC4)cc3)o2)cc1Cl | 10.8
68 | CC1(C)Cc2c(sc3nc(SCc4ccccc4)n(CCc4ccccc4)c(=O)c23)CO1 | -5.1
69 | O=C(NCCN1CCOCC1)c1cc(-c2ccc(Br)cc2)nc2ccccc12 | -5.8
70 | O=C(NNC1=C(C(=O)C(F)(F)F)CCC1)c1ccc(O)cc1 | -12
71 | NC(=S)N/N=C/c1ccc(-c2cccc(Cl)c2Cl)o1 | -16.3
